Molecules are shown by their SMILES. The list shows a part of the results. The main result of the screen is listed elsewhere. These columns were measured beside it and carry no call.

The experiment can be described thus: compounds boosting herpes simplex virus growth – fold increase, host cell viability (AID 1956). Note: tested in PC3 cells. The note with it: HSV replication augmentation in cells; fold increase: measured here: primary screen fold increase 10 uM, at 10 µM, stronger effect = higher value; viability: measured here: host cell viability series, at 25 µM, stronger effect = lower value.
Regarding `CCC[C@@H]1C[C@@]1(CCC)[C@@H](NC(=O)c1ccccc1)c1ccc(C(=O)OC)cc1`, the fold increase is 1.52 and the viability (in general, a read-out of living cells in per cent, often relative to untreated cells) is 97.4%.
Turning to `O=C(COC(=O)c1ccc[nH]c1=O)NC1CCCCC1`, the fold increase is 1.38 and the viability was determined as 109%.
As for `N#C/C(=C\c1ccc(N2CCOCC2)o1)C(=O)NCC1CCCO1` (stereo not drawn), the fold increase was 2.23.
In the case of `CCOc1cc(/C=C2/SC(=S)N(CC(=O)O)C2=O)ccc1OC(=O)c1cccs1`, the fold increase was found to be 1.91 and the viability was 92.8%.
Taken in the same sequence, the figures for `COc1cc(OC)c(OC)cc1/C=C1\Oc2cc(OS(C)(=O)=O)ccc2C1=O` were 1.79 and 86.2%.
Taken in the same sequence, the figures for `CCN(CC)CCNC(CC(=O)Nc1ccc(Cl)cc1Cl)C(=O)O` (stereo not drawn) were 1.41 and 92.6%.
Consider `O=C(CSc1nnc2n1CCCN2)c1ccccc1`, for which the fold increase came to 1.36 and the viability was found to be 99.7%.
The corresponding values for `CC(C)COC(=O)C1C2C=CC3(CN(C(C)c4ccc(Br)cc4)C(=O)C13)O2` (stereo not drawn) are 1.42 and 98.2%.
Taken in the same sequence, the figures for `CN(c1nc2nonc2nc1NC1CC1)C1CCOC1` (stereo not drawn) were 1.35 and 99.1%.
The corresponding values for `Cn1cc(/C=N\O)nc2c(=O)n(-c3ccccc3)c(=O)nc1-2` are 2.57 and 104%.
`Cc1sc2nc(COC(=O)c3ccc(N4CCCC4)c([N+](=O)[O-])c3)[nH]c(=O)c2c1C`: the fold increase was determined as 1.5 and the viability worked out at 94.5%.
In the case of `CC1(C)Cc2ccccc2C2CC(O)C(=O)N21` (stereo not drawn), the fold increase worked out at 1.65 and the viability was 91.4%.
Turning to `Cc1ccc(F)cc1NC(=O)N1c2ccccc2NC(=O)CC1C` (stereo not drawn), the fold increase came out at 1.32.
As to `CCOc1cc(/C=C(/C#N)C(=O)Nc2ccc(O)cc2)cc(Br)c1O`, the fold increase was determined as 2.62 and the viability came to 44.3%.
The corresponding values for `COc1cc(/C=C2\NC(=S)N(C)C2=O)ccc1O` are 1.4 and 94.5%.
As for `CC(=Nc1ccc(C)cc1C)c1sc2ccccc2c1O`, the fold increase came to 1.51.
As to `COc1cc(/C=C/C(=O)C2C(=O)C=C(C)OC2=O)cc(OC)c1O` (stereo not drawn), the fold increase stood at 1.78 and the viability is 95.5%.
As for `Cc1ccc(N2C(=O)c3cccc4c(N)ccc(c34)C2=O)c2cccnc12`, the fold increase was found to be 9.47 and the viability was determined as 41.8%.
With `O=C(CN(Cc1ccccc1)C(=O)CSc1nnc(COc2ccccc2)o1)NC1CCCC1`, the fold increase was 1.26.
Take `Cc1csc(SC(C)C(=O)NCc2ccc3c(c2)OCO3)n1` (stereo not drawn): the fold increase came out at 1.38 and the viability is 93.2%.
Regarding `COc1cc(C2C(C#N)=C(N)OC3=C2C(=O)CCC3)c([N+](=O)[O-])cc1OC` (stereo not drawn), the fold increase was 1.35.
With `O=C(c1ccc(Cl)c([N+](=O)[O-])c1)N1CCN(C(=O)c2ccco2)CC1`, the fold increase came to 1.6 and the viability came to 96.4%.
The corresponding values for `O=C(/C=C/c1ccc(N2CCC(c3ccccc3)=N2)cc1)c1ccccc1` are 9.36 and 90.4%.
Taken in the same sequence, the figures for `Brc1ccc(C2=CC(c3cccs3)n3ncnc3N2)cc1` (stereo not drawn) were 7.86 and 81.8%.
On to `COc1ccccc1N1C(=O)C2C(C(=O)c3ccccc3)=NN(c3ccccc3OC)C2C1=O` (stereo not drawn), for which the fold increase turned out to be 2.07 and the viability was 96.2%.
Take `Cc1nn(C)cc1N1C(=O)c2cccc3c(N)ccc(c23)C1=O`: the fold increase was found to be 9.53.
Regarding `N#CC1=C(N)Oc2cc(O)ccc2C1c1cccs1` (stereo not drawn), the fold increase came to 2.74 and the viability is 85.7%.
As to `CCN1CCN(C(c2cccs2)C(C)NC(=O)CC(C)C)CC1` (stereo not drawn), the fold increase was 1.39.
As for `CCOC(=O)C1=C(N)Oc2c(oc(CO)cc2=O)C1c1ccc(F)c(F)c1` (stereo not drawn), the fold increase was found to be 1.4 and the viability is 87.5%.
Taken in the same sequence, the figures for `CC(=O)c1ccc(NC(=O)C(C)OC(=O)C(C)Oc2cccc(C)c2)cc1` (stereo not drawn) were 1.35 and 98.7%.
As to `CCO/C(C)=C1/SC(=S)NC1=O`, the fold increase worked out at 1.56 and the viability turned out to be 97.6%.
As for `CC(=O)Oc1c(Cl)cc(Cl)cc1/C=C/c1ccc2ccccc2n1`, the fold increase was determined as 1.89 and the viability is 85.9%.
The corresponding values for `Cc1cc[n+](-c2[nH]c(=O)sc2/C=N/NC([S-])=Nc2ccccc2)cc1` are 1.45 and 94.1%.
The corresponding values for `C=CCN1C(=O)[C@]2(c3ccccc31)C1CCCC=C1C(C#N)=C(N)C2(C#N)C#N` (stereo partly drawn) are 1.56 and 94.8%.
As for `Cc1ccc(NC2=C(C(=O)c3ccccc3)N(C)S(=O)(=O)c3ccccc32)cc1`, the fold increase turned out to be 1.16.
Take `C=CCN1C(=O)CS/C1=N\S(=O)(=O)c1ccc(Cl)cc1`: the fold increase was found to be 1.59.
The same measure, in the same setting: the result for `O=C(COC(=O)c1ccc(S(=O)(=O)NCc2ccco2)cc1)Nc1ccc(OC(F)F)cc1` reads 1.16.
`CCC1CCCCN1C(=O)CSc1nnc(-c2ccc(OC)cc2)o1` (stereo not drawn): the fold increase was 1.33 and the viability amounted to 88.9%.
As to `O=C(c1ccc(-c2ccccc2)cc1)c1ccc([N+](=O)[O-])cc1`, the fold increase worked out at 1.4 and the viability is 105%.
For the compound `Cc1ccc(-c2ccc(/C=C(\C#N)C(=O)Nc3cc(C)nn3-c3ccccc3)o2)cc1`, the fold increase worked out at 1.38.
Turning to `CN1CCc2c(sc3c2C(=O)NC(c2cccs2)N3)C1` (stereo not drawn), the fold increase is 1.66 and the viability was found to be 93.7%.
Take `COc1c(Cl)ccc(Cl)c1C(=O)NC(=O)N1CCOCC1`: the fold increase came out at 1.36 and the viability is 96.6%.
As to `O=S(=O)(c1cccs1)N1CN(Cc2ccco2)c2nc3ccccc3nc21`, the fold increase was found to be 1.72 and the viability was 96.7%.
The corresponding values for `CN1CCCNc2nc3ccccc3nc21` are 1.34 and 99.1%.
Taken in the same sequence, the figures for `CC1=C(C#N)C(=O)OC(C)(C)C1` were 1.38 and 103%.
The corresponding values for `O=c1[nH]c2ccc([N+](=O)[O-])cc2nc1/C=C(\O)c1ccccc1` are 1.33 and 85%.
On to `COC(/C=C/Nc1ccc(C)c(C)c1)=C(C#N)C#N`, for which the fold increase stood at 1.4 and the viability is 95.3%.
The corresponding values for `CCCCCCN1C=CC(=C/C=C(\C#N)C(=O)OCC)C=C1` are 6.08 and 96.7%.
On to `COc1cc(/C=c2\sc3n(c2=O)C(c2ccccc2)C(c2ccccc2)=NN=3)ccc1O` (stereo not drawn), for which the fold increase is 1.72 and the viability amounted to 89.7%.
Taken in the same sequence, the figures for `Cc1n[nH]c(C)c1N1C(=O)c2cccc3c(Br)ccc(c23)C1=O` were 4.32 and 100%.
The corresponding values for `N#C/C(=C(/O)c1ccc([N+](=O)[O-])o1)c1nc2ccccc2[nH]1` are 15.3 and 34.7%.
Regarding `Cc1ccnc(N2C(=O)c3cccc4c([N+](=O)[O-])ccc(c34)C2=O)c1`, the fold increase is 2.44 and the viability came out at 2.67%.
Taken in the same sequence, the figures for `O=C1c2cccc3c(O)ccc(c23)C(=O)N1Cc1ccccc1` were 4.52 and 97.6%.
`CCCCOc1ccc(C2OC34CCCCC3C(C#N)(C#N)C2(C#N)C(=N)O4)cc1` (stereo not drawn): the fold increase was determined as 1.44 and the viability turned out to be 91.6%.
The corresponding values for `CC1CCN(Cc2ccc(NC(=O)C3CCN(c4nnc(-n5cccc5)s4)CC3)cc2)CC1` are 1.35 and 85.7%.
For the compound `COc1cccc(/C=N/Nc2nc3ccccc3n3cnnc23)c1O`, the fold increase was found to be 2.55.
As to `COc1cccc(C2C=C(c3ccc(OC)cc3OC)Nc3nnnn32)c1` (stereo not drawn), the fold increase came out at 1.32 and the viability was determined as 63.2%.
Taken in the same sequence, the figures for `CCOCCCN1CN(S(=O)(=O)c2ccc(Cl)cc2)c2nc3ccccc3nc21` were 1.34 and 95.9%.
With `COc1c(N2CCN(C(=S)NCc3ccccc3)C(C)C2)c(F)cc2c(=O)c(C(=O)O)cn(C3CC3)c12` (stereo not drawn), the fold increase amounted to 1.38.
For the compound `O=C(N/N=C/c1cc([N+](=O)[O-])ccc1O)c1ccncc1`, the fold increase is 1.59 and the viability was determined as 99.8%.
Regarding `CC(=O)N1CCN(c2ccc(NCc3cccs3)cc2)CC1`, the fold increase stood at 1.31.
Same read-out and setting: then `NC(=S)NN=C(Cc1ccccc1)Cc1ccccc1`, with 1.46.
In the case of `CCN1CCN(Cc2c(O)ccc3c2O/C(=C\C=C\c2ccccc2OC)C3=O)CC1`, the fold increase amounted to 4.14 and the viability was determined as 85.7%.
For the compound `COc1ccc(N2C(=O)C3CCCN3C2c2ccccc2F)cc1` (stereo not drawn), the fold increase is 1.35 and the viability stood at 104%.
The corresponding values for `Cc1ccsc1C=Nc1ccc(O)cc1` are 1.38 and 93.5%.
Consider `CC(=O)OCCn1c2nc(=O)[nH]c(=O)c-2nc2cc(C)c(C)cc21`, for which the fold increase worked out at 8.61.
Regarding `COc1cc(/C=C2/SC(=Nc3ccc(O)cc3)NC2=O)cc(OC)c1O`, the fold increase turned out to be 4.36 and the viability turned out to be 70.1%.
The corresponding values for `COC(=O)c1sc2nc(CN3CCN(c4cccc(C(F)(F)F)c4)CC3)[nH]c(=O)c2c1C` are 1.81 and 103%.
With `COc1ccc(CNC(=S)Nc2cc(C)cc(C)c2)cc1`, the fold increase stood at 1.2.
With `Cc1ccc(C2C(C(=O)c3cccs3)=C(O)C(=O)N2c2nnc(C)s2)cc1` (stereo not drawn), the fold increase turned out to be 2.6.
Turning to `CC(=O)C1=C(O)CCC1=NCCc1ccccc1`, the fold increase is 1.35 and the viability was determined as 95%.
As for `O=S(=O)([N-]c1nc2ccccc2nc1-[n+]1ccc(-c2ccncc2)cc1)c1ccccc1`, the fold increase came to 1.81 and the viability is 102%.
The corresponding values for `CCOC(=O)C1(Cc2ccc(OC)cc2)CCN(C(=O)Cc2cccnc2)CC1` are 1.34 and 94.5%.
Taken in the same sequence, the figures for `CCc1ccccc1N1CC23C=CC(O2)C(C(=O)O)C3C1=O` (stereo not drawn) were 1.39 and 104%.
`C/C(CCc1ccc2c(c1)OCO2)=N\N=C1\NC(=O)CC(C(=O)Nc2ccccc2)S1` (stereo not drawn): the fold increase stood at 1.42 and the viability amounted to 87.8%.
Take `CN(C)c1ccc(/C=C/C(=O)c2c(O)c3ccccc3oc2=O)cc1`: the fold increase turned out to be 1.95 and the viability was determined as 91%.
Taken in the same sequence, the figures for `Cc1[nH]c2ccccc2c1/C=N/Nc1ccc([N+](=O)[O-])cc1S(=O)(=O)Nc1ccc(Cl)cc1` were 1.56 and 73.8%.
The corresponding values for `NC(=O)c1ccc(NC(=O)COC(=O)c2c3c(nc4ccccc24)/C(=C\c2ccc4c(c2)OCO4)CCC3)cc1` are 5.75 and 46%.
Taken in the same sequence, the figures for `O=C(NCCCl)Nc1cccc(Br)c1` were 1.33 and 94.3%.
For `COc1ccc(/C=C2\C(=O)NC(=S)N2C(=O)c2ccc(F)cc2)cc1`, the fold increase stood at 7.41 and the viability stood at 100%.
For `Cc1cc(C(=O)Nc2ccc3c(c2)OCCO3)c2ccccc2n1`, the fold increase was 1.45 and the viability is 101%.
Regarding `O=C(CNS(=O)(=O)c1ccccc1)Nc1ccc(C(F)(F)F)cc1`, the fold increase turned out to be 1.42 and the viability worked out at 97.9%.
With `COc1ccc(/C=C/C(=O)NC(=S)NN2CCCCC2c2cccnc2)cc1` (stereo not drawn), the fold increase turned out to be 1.39 and the viability came to 97%.
The corresponding values for `Cc1ccc(-c2nc(NC(=O)CSc3cc(C)c4ccccc4n3)ns2)cc1` are 1.45 and 98.2%.
Consider `C/C(=N\NC(=O)c1[nH]c2c([N+](=O)[O-])cc(C)cc2c1-c1ccccc1)c1cccnc1`, for which the fold increase was 0.99.
With `O=C1c2ccccc2S(=O)(=O)N1CC(O)Cn1ccc2ccccc21` (stereo not drawn), the fold increase turned out to be 2.39 and the viability is 107%.
On to `O=C(N[C@@H](Cc1ccccc1)C(=O)OCc1ccccc1)c1nc[nH]c1C(=O)N1CCc2ccccc2C1`, for which the fold increase came out at 1.32.
Consider `CCc1ccc(NCc2cc3c(C)nn(-c4ccccc4)c3[nH]c2=O)cc1`, for which the fold increase is 1.33 and the viability worked out at 89.5%.
As for `Nc1c(C(=O)O)ccc2c1C(=O)c1ccccc1C2=O`, the fold increase was found to be 1.32 and the viability worked out at 90.3%.
In the case of `N#C/C(=C\c1ccc(O)cc1)c1nc2ccccc2o1`, the fold increase stood at 3.72 and the viability was determined as 89.3%.
As to `N#C/C(C(=O)NCc1ccccc1)=C1/N=C(NC(=O)c2cccs2)c2ccccc21`, the fold increase was 1.32.
For `CCNc1nc(NCC)n2c(SC(C)C(=O)c3ccc(C)cc3)nnc2n1` (stereo not drawn), the fold increase was found to be 1.36 and the viability came out at 86.9%.
With `CCCn1c(=O)c(C(=O)c2ccccc2)nc2ccccc21`, the fold increase turned out to be 1.34 and the viability was determined as 93.5%.
Regarding `C#CCN1C(=O)S/C(=C/C=C/c2ccc(N(C)C)cc2)C1=O`, the fold increase came to 3.17.
With `N=C1/C(=C\c2ccc(SCc3ccco3)o2)C(=O)N=C2SC=NN12`, the fold increase turned out to be 1.84 and the viability came out at 98.7%.

Source of the values: PubChem BioAssay AID1956 (SRMLSC, 2009).
